# Laboratory results taken from the supplement of paper PMC8728848.
# Some of the results follow.
# What was measured:
# Assay in all cases: glycan array binding signal (z-score within array); higher = stronger binding
# Conditions in all cases: glycan notation: IUPAC condensed, linker removed
# Neu5Ac(a2-6)Gal(b1-4)Glc = molecular target: Neu5Ac(a2-6)Gal(b1-4)Glc
# In short: (§1)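 The Consortium for Functional Glycomics database supplied 3228 glycan arrays, of which those lacking an available protein sequence were dropped. The binding signal, a within-array Z-score, was averaged across arrays of the same protein sequence and across linkers. Negative scores can be read as non-binding.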
# [1] = molecular target: Neu5Ac(a2-6)Gal(b1-4)GlcNAc
# In short: as §1
# [2] = molecular target: Neu5Ac(a2-6)Gal(b1-4)GlcNAc(b1-2)Man(a1-3)[Gal(b1-4)GlcNAc(b1-2)Man(a1-6)]Man(b1-4)GlcNAc(b1-4)GlcNAc
# In short: as §1
# [3] = molecular target: Neu5Ac(a2-6)Gal(b1-4)GlcNAc(b1-2)Man(a1-3)[GlcNAc(b1-2)Man(a1-6)]Man(b1-4)GlcNAc(b1-4)GlcNAc
# In short: as §1
# [4] = molecular target: Neu5Ac(a2-6)Gal(b1-4)GlcNAc(b1-2)Man(a1-3)[GlcNAc(b1-2)Man(b1-4)GlcNAc(b1-2)Man(a1-6)]Man(b1-4)GlcNAc(b1-4)GlcNAc
# In short: as §1
# [5] = molecular target: Neu5Ac(a2-6)Gal(b1-4)GlcNAc(b1-2)Man(a1-3)[Neu5Ac(a2-6)Gal(b1-4)GlcNAc(b1-2)Man(a1-6)]Man(b1-4)GlcNAc(b1-4)GlcNAc
# In short: as §1
# [6] = molecular target: Neu5Ac(a2-6)Gal(b1-4)GlcNAc(b1-2)Man(a1-6)[Gal(b1-4)GlcNAc(b1-2)Man(a1-3)]Man(b1-4)GlcNAc(b1-4)GlcNAc
# In short: as §1
# [7] = molecular target: Neu5Ac(a2-6)Gal(b1-4)GlcNAc(b1-2)Man(a1-6)[GlcNAc(b1-2)Man(a1-3)]Man(b1-4)GlcNAc(b1-4)GlcNAc
# In short: as §1
# [8] = molecular target: Neu5Ac(a2-6)Gal(b1-4)GlcNAc(b1-3)Gal(b1-4)GlcNAc
# In short: as §1
# [9] = molecular target: Neu5Ac(a2-6)Gal(b1-4)GlcNAc(b1-3)Gal(b1-4)[Fuc(a1-3)]GlcNAc(b1-3)Gal(b1-4)[Fuc(a1-3)]GlcNAc
# In short: as §1
# [10] = molecular target: Neu5Ac(a2-6)Gal(b1-4)GlcNAc6S
# In short: as §1
# Neu5Ac(a2-6)GalNAc = molecular target: Neu5Ac(a2-6)GalNAc
# In short: as §1
# [11] = molecular target: Neu5Ac(a2-6)GalNAc(b1-4)GlcNAc
# In short: as §1
# Neu5Ac(a2-8)Neu5Ac = molecular target: Neu5Ac(a2-8)Neu5Ac
# In short: as §1
# [12] = molecular target: Neu5Ac(a2-8)Neu5Ac(a2-3)Gal(b1-4)Glc
# In short: as §1
# [13] = molecular target: Neu5Ac(a2-8)Neu5Ac(a2-3)[GalNAc(b1-4)]Gal(b1-4)Glc
# In short: as §1
# [14] = molecular target: Neu5Ac(a2-8)Neu5Ac(a2-8)Neu5Ac
# In short: as §1
# [15] = molecular target: Neu5Ac(a2-8)Neu5Ac(a2-8)Neu5Ac(a2-3)Gal(b1-4)Glc
# In short: as §1
# [16] = molecular target: Neu5Ac(a2-8)Neu5Ac(a2-8)Neu5Ac(a2-3)[GalNAc(b1-4)]Gal(b1-4)Glc
# In short: as §1
# [17] = molecular target: Neu5Ac(a2-8)Neu5Ac(a2-8)Neu5Ac(a2-8)Neu5Ac(a2-3)[GalNAc(b1-4)]Gal(b1-4)Glc
# In short: as §1
# Neu5Ac(b1-6)GalNAc = molecular target: Neu5Ac(b1-6)GalNAc
# In short: as §1
# [18] = molecular target: Neu5Ac(b2-6)Gal(b1-4)GlcNAc
# In short: as §1
# Neu5Ac(b2-6)GalNAc = molecular target: Neu5Ac(b2-6)GalNAc
# In short: as §1
# [19] = molecular target: Neu5Ac9Ac(a2-6)Gal(b1-4)GlcNAc
# In short: as §1
# [20] = molecular target: Neu5Gc(a2-3)Gal(b1-3)GlcNAc
# In short: as §1
# [21] = molecular target: Neu5Gc(a2-3)Gal(b1-3)[Fuc(a1-4)]GlcNAc
# In short: as §1
# Neu5Gc(a2-3)Gal(b1-4)Glc = molecular target: Neu5Gc(a2-3)Gal(b1-4)Glc
# In short: as §1
# [22] = molecular target: Neu5Gc(a2-3)Gal(b1-4)GlcNAc
# In short: as §1
# [23] = molecular target: Neu5Gc(a2-3)Gal(b1-4)[Fuc(a1-3)]GlcNAc
# In short: as §1
# [24] = molecular target: Neu5Gc(a2-6)Gal(b1-4)GlcNAc
# In short: as §1
# Neu5Gc(a2-6)GalNAc = molecular target: Neu5Gc(a2-6)GalNAc
# In short: as §1
# [25] = molecular target: Neu5Gc(b2-6)Gal(b1-4)GlcNAc
# In short: as §1
binder,measurement,setting,value
"E-Selectin (Mus musculus), Q00690 (protein) MNASRFLSALVFVLLAGESTAWYYNASSELMTYDEASAYCQRDYTHLVAIQNKEEINYLNSNLKHSPSYYWIGIRKVNNVWIWVGTGKPLTEEAQNWAPGEPNNKQRNEDCVEIYIQRTKDSGMWNDERCNKKKLALCYTASCTNASCSGHGECIETINSYTCKCHPGFLGPNCEQAVTCKPQEHPDYGSLNCSHPFGPFSYNSSCSFGCKRGYLPSSMETTVRCTSSGEWSAPAPACHVVECEALTHPAHGIRKCSSNPGSYPWNTTCTFDCVEGYRRVGAQNLQCTSSGIWDNETPSCKAVTCDAIPQPQNGFVSCSHSTAGELAFKSSCNFTCEQSFTLQGPAQVECSAQGQWTPQIPVCKAVQCEALSAPQQGNMKCLPSASGPFQNGSSCEFSCEEGFELKGSRRLQCGPRGEWDSKKPTCSAVKCDDVPRPQNGVMECAHATTGEFTYKSSCAFQCNEGFSLHGSAQLECTSQGKWTQEVPSCQVVQCPSLDVPGKMNMSCSGTAVFGTVCEFTCPDDWTLNGSAVLTCGATGRWSGMPPTCEAPVSPTRPLVVALSAAGTSLLTSSSLLYLLMRYFRKKAKKFVPASSCQSLQSFENYHVPSYNV",glycan array binding signal (z-score),Neu5Ac(a2-6)Gal(b1-4)Glc,-0.293
same,glycan array binding signal (z-score),[1],-0.289
same,glycan array binding signal (z-score),[2],-0.218
same,glycan array binding signal (z-score),[3],-0.234
same,glycan array binding signal (z-score),[4],-0.315
same,glycan array binding signal (z-score),[5],-0.247
same,glycan array binding signal (z-score),[6],-0.219
same,glycan array binding signal (z-score),[7],-0.194
same,glycan array binding signal (z-score),[8],-0.322
same,glycan array binding signal (z-score),[9],0.298
same,glycan array binding signal (z-score),[10],-0.299
same,glycan array binding signal (z-score),Neu5Ac(a2-6)GalNAc,-0.32
same,glycan array binding signal (z-score),[11],-0.27
same,glycan array binding signal (z-score),Neu5Ac(a2-8)Neu5Ac,-0.246
same,glycan array binding signal (z-score),[12],-0.242
same,glycan array binding signal (z-score),[13],-0.2
same,glycan array binding signal (z-score),[14],-0.28
same,glycan array binding signal (z-score),[15],-0.279
same,glycan array binding signal (z-score),[16],-0.292
same,glycan array binding signal (z-score),[17],-0.312
same,glycan array binding signal (z-score),Neu5Ac(b1-6)GalNAc,-0.379
same,glycan array binding signal (z-score),[18],-0.346
same,glycan array binding signal (z-score),Neu5Ac(b2-6)GalNAc,-0.199
same,glycan array binding signal (z-score),[19],-0.286
same,glycan array binding signal (z-score),[20],-0.335
same,glycan array binding signal (z-score),[21],4.57
same,glycan array binding signal (z-score),Neu5Gc(a2-3)Gal(b1-4)Glc,-0.33
same,glycan array binding signal (z-score),[22],-0.254
same,glycan array binding signal (z-score),[23],2.71
same,glycan array binding signal (z-score),[24],-0.355
same,glycan array binding signal (z-score),Neu5Gc(a2-6)GalNAc,-0.253
same,glycan array binding signal (z-score),[25],-0.17
